# From the supplement of paper PMC8728848
# This is one part of the list.
# B1: SP16665A-bot-344-23-344 (Bacteroides ovatus) (protein)
# chain: SDNEFPDFDYQTVYFANQYGLRTIELGESEFVDNTLDNQHKMVIKAAWGGGYTNRNNVVINFKVDESLCDNLYFKDTDQPLVPMPASYYTLASDRIAIPKGQIMAGVEVQLTDDFFADEKSISENYVIPLLMTNVQGADSILQGKPVVENPVLTNAGDWSILPQNFVLYAVKYVNPWHGEYLRRGIDHATVAGTSKDIIRHEQFVENDEVVNISTKSMKDNLLTLKTKDESGKDISYTVRLSFAEDGSCTVHSGSQNVVVSGSGKFVSKGEKNSLGGKDRNAIYLDYTVNLTDNNIQLATKDTLVLRTRNVYGGKSLEVVRK
# Experiments:
# Test in all cases: glycan array binding signal (z-score within array); higher = stronger binding
# Settings in all cases: glycan notation: IUPAC condensed, linker removed
# [1] = target: GlcNAc(b1-4)GlcNAc(b1-4)GlcNAc(b1-4)GlcNAc(b1-4)GlcNAc(b1-4)GlcNAc
# Summary of the method: (§1)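 Glycan array binding is given as a within-array Z-score, which can be read as non-binding when negative. The arrays, 3228 of them, came from the Consortium for Functional Glycomics database and were retained only where the protein sequence was available. Z-scores were averaged across arrays of the same protein sequence at different concentrations or buffers and across linkers.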
# [2] = target: GlcNAc(b1-4)[GlcNAc(b1-6)]GalNAc
# Summary of the method: as §1
# [3] = target: GlcNAc(b1-6)Gal(b1-4)GlcNAc
# Summary of the method: as §1
# [4] = target: GlcNAc(b1-6)GalNAc
# Summary of the method: as §1
# [5] = target: GlcNAc6S(b1-3)Gal(b1-4)GlcNAc
# Summary of the method: as §1
# [6] = target: Kdn(a2-3)Gal(b1-3)GalNAc
# Summary of the method: as §1
# [7] = target: Kdn(a2-3)Gal(b1-3)GlcNAc
# Summary of the method: as §1
# [8] = target: Kdn(a2-3)Gal(b1-4)Glc
# Summary of the method: as §1
# [9] = target: Kdn(a2-3)Gal(b1-4)GlcNAc
# Summary of the method: as §1
# [10] = target: Kdn(a2-3)Gal(b1-4)[Fuc(a1-3)]GlcNAc
# Summary of the method: as §1
# [11] = target: Kdn(a2-6)Gal(b1-4)GlcNAc
# Summary of the method: as §1
# [12] = target: Man(a1-2)Man(a1-2)Man(a1-3)Man
# Summary of the method: as §1
# [13] = target: Man(a1-2)Man(a1-2)Man(a1-6)[Man(a1-3)]Man
# Summary of the method: as §1
# [14] = target: Man(a1-2)Man(a1-3)Man
# Summary of the method: as §1
# [15] = target: Man(a1-2)Man(a1-3)[Man(a1-2)Man(a1-6)]Man
# Summary of the method: as §1
# [16] = target: Man(a1-2)Man(a1-3)[Man(a1-2)Man(a1-6)]Man(a1-6)[Man(a1-2)Man(a1-2)Man(a1-3)]Man
# Summary of the method: as §1
# [17] = target: Man(a1-2)Man(a1-3)[Man(a1-2)Man(a1-6)]Man(a1-6)[Man(a1-2)Man(a1-2)Man(a1-3)]Man(b1-4)GlcNAc(b1-4)GlcNAc
# Summary of the method: as §1
# [18] = target: Man(a1-2)Man(a1-3)[Man(a1-6)]Man(a1-6)[Man(a1-2)Man(a1-3)]Man(b1-4)GlcNAc(b1-4)GlcNAc
# Summary of the method: as §1
# [19] = target: Man(a1-2)Man(a1-6)[Man(a1-3)]Man(a1-6)[Man(a1-2)Man(a1-2)Man(a1-3)]Man
# Summary of the method: as §1
# [20] = target: Man(a1-2)Man(a1-6)[Man(a1-3)]Man(a1-6)[Man(a1-2)Man(a1-2)Man(a1-3)]Man(b1-4)GlcNAc(b1-4)GlcNAc
# Summary of the method: as §1
# [21] = target: Man(a1-3)[Man(a1-6)]Man
# Summary of the method: as §1
# [22] = target: Man(a1-3)[Man(a1-6)]Man(a1-6)[Man(a1-2)Man(a1-3)]Man(b1-4)GlcNAc(b1-4)GlcNAc
# Summary of the method: as §1
# [23] = target: Man(a1-3)[Man(a1-6)]Man(a1-6)[Man(a1-3)]Man
# Summary of the method: as §1
# [24] = target: Man(a1-3)[Man(a1-6)]Man(a1-6)[Man(a1-3)]Man(b1-4)GlcNAc(b1-4)GlcNAc
# Summary of the method: as §1
# [25] = target: Man(a1-3)[Man(a1-6)]Man(b1-4)GlcNAc(b1-4)GlcNAc
# Summary of the method: as §1
# [26] = target: Man(a1-3)[Man(a1-6)]Man(b1-4)GlcNAc(b1-4)[Fuc(a1-6)]GlcNAc
# Summary of the method: as §1
# [27] = target: Man(a1-6)Man
# Summary of the method: as §1
# [28] = target: Man(b1-4)GlcNAc
# Summary of the method: as §1
# [29] = target: MurNAc(b1-4)GlcNAc
# Summary of the method: as §1
# [30] = target: Neu5Ac(a2-3)Gal
# Summary of the method: as §1
# [31] = target: Neu5Ac(a2-3)Gal(b1-3)GalNAc
# Summary of the method: as §1
# [32] = target: Neu5Ac(a2-3)Gal(b1-3)GalNAc(b1-3)Gal(a1-4)Gal(b1-4)Glc
# Summary of the method: as §1
# [33] = target: Neu5Ac(a2-3)Gal(b1-3)GalNAc(b1-4)[Neu5Ac(a2-3)]Gal(b1-4)Glc
# Summary of the method: as §1
# [34] = target: Neu5Ac(a2-3)Gal(b1-3)GalNAc(b1-4)[Neu5Ac(a2-8)Neu5Ac(a2-3)]Gal(b1-4)Glc
# Summary of the method: as §1
# [35] = target: Neu5Ac(a2-3)Gal(b1-3)GalNAc6S
# Summary of the method: as §1
# [36] = target: Neu5Ac(a2-3)Gal(b1-3)GlcNAc
# Summary of the method: as §1
# [37] = target: Neu5Ac(a2-3)Gal(b1-3)GlcNAc(b1-2)Man
# Summary of the method: as §1
binder,measurement,setting,value
B1,glycan array binding signal (z-score),[1],0.044
same,glycan array binding signal (z-score),[2],-0.019
same,glycan array binding signal (z-score),[3],0.154
same,glycan array binding signal (z-score),[4],0.492
same,glycan array binding signal (z-score),[5],-0.262
same,glycan array binding signal (z-score),[6],-0.434
same,glycan array binding signal (z-score),[7],-0.316
same,glycan array binding signal (z-score),[8],-0.005
same,glycan array binding signal (z-score),[9],-0.185
same,glycan array binding signal (z-score),[10],-0.264
same,glycan array binding signal (z-score),[11],-0.417
same,glycan array binding signal (z-score),[12],-0.468
same,glycan array binding signal (z-score),[13],-0.281
same,glycan array binding signal (z-score),[14],0.048
same,glycan array binding signal (z-score),[15],0.074
same,glycan array binding signal (z-score),[16],0.464
same,glycan array binding signal (z-score),[17],-0.19
same,glycan array binding signal (z-score),[18],-0.204
same,glycan array binding signal (z-score),[19],-0.563
same,glycan array binding signal (z-score),[20],-0.087
same,glycan array binding signal (z-score),[21],-0.441
same,glycan array binding signal (z-score),[22],0.003
same,glycan array binding signal (z-score),[23],0.018
same,glycan array binding signal (z-score),[24],-0.618
same,glycan array binding signal (z-score),[25],-0.053
same,glycan array binding signal (z-score),[26],-0.355
same,glycan array binding signal (z-score),[27],0.306
same,glycan array binding signal (z-score),[28],0.383
same,glycan array binding signal (z-score),[29],-0.317
same,glycan array binding signal (z-score),[30],-0.314
same,glycan array binding signal (z-score),[31],1.94
same,glycan array binding signal (z-score),[32],-0.171
same,glycan array binding signal (z-score),[33],-0.366
same,glycan array binding signal (z-score),[34],-0.26
same,glycan array binding signal (z-score),[35],-0.272
same,glycan array binding signal (z-score),[36],-0.033
same,glycan array binding signal (z-score),[37],-0.426
